Out of some 410,000 compounds screened, about 6,400 (1.6%) were called active. The inconclusive results got no clear call from the source; some entries with a clear call stand among them for comparison. The call rests on the fitted dose curve; in most records, active means well fitted inhibition curve with a large enough effect; inconclusive means small, poorly fitted or top-dose-only effect; inactive means no such curve, though single readings can be large or run the other way. Potencies of inconclusive entries are left out as doubtful fits.
These compounds were tested against Glucagon-like peptide 1 receptor (Homo sapiens) (UniProt P43220) (assay: qHTS of GLP-1 Receptor Inverse Agonists (Inhibition Mode)). Conditions: HEK293 GLP-1R CRE-luciferase, luminescence, 24 h, GLP-1R form is constitutively active; activity change, negative = inhibition: at 38.3 µM (top of the series) unless noted.
UniProt P43220, sequence (P43220 whole entry, looked up): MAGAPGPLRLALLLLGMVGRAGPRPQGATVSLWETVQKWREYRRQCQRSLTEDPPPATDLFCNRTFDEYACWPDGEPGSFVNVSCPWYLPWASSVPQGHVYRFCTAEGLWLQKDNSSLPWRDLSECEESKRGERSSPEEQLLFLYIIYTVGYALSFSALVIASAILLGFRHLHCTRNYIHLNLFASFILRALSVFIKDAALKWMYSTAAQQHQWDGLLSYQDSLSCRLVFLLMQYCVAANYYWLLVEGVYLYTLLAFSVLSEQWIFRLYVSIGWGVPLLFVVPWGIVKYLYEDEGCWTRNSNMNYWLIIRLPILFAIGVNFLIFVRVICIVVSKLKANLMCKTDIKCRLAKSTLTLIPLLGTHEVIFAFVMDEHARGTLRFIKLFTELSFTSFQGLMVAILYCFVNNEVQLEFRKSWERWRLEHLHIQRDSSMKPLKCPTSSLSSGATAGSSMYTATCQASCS
Outline: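 Using stably transfected HEK293 (constitutively active GLP-1R, cAMP-luciferase reporter), compounds were incubated 24 hr and luciferase measured by luminescence.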
Further: nearly all actives have a fitted effect of over 55% in size.
On the % scale 0 is the no-effect control and ±100 the full control effect; potency means the concentration at half of the fitted maximal effect; tags describe the fitted curve by direction and shape.

| Structure (SMILES) | Potency | activity change, negative = inhibition |
| --- | --- | --- |
| CCOc1ccccc1OCCOc1cccc(C(F)(F)F)c1 | inconclusive [inhibitor, single point] | – |
| Cc1ccccc1OCCNC(=O)CNC(=O)c1ccccc1O | inactive | – |
| Cc1ccc2cc(CN(CC3CCCO3)C(=S)NCc3ccco3)c(=O)[nH]c2c1C (stereo not drawn) | inconclusive [inhibitor, partial curve, poor fit] | – |
| CC(C)=CCN1CCN(Cc2cccn2-c2ccccn2)CC1CCO (stereo not drawn) | – | inactive: 7.62% [at 7.66 µM] |
| Nc1nn(-c2ccccc2)c(N)c1N=Nc1ccccc1F | inconclusive [inhibitor, partial curve, poor fit] | – |
| COCCNC(=O)c1onc(CSc2ccc(Cl)cc2)c1C(=O)O | inconclusive [inhibitor, single point] | – |
| Cc1ccc(-n2c([S-])c(C(=O)NC(C)c3ccccc3)[n+]3ccccc23)cc1 (stereo not drawn) | inconclusive [inhibitor, single point] | – |
| CCC(Oc1ccccc1)C(=O)Nc1nnc(S(=O)(=O)Nc2ccccc2)s1 (stereo not drawn) | inconclusive [inhibitor, single point] | – |
| CCc1ccc(CNC(=O)c2ccc(CSc3nc4ccncc4n3Cc3ccccc3)cc2)cc1 | inconclusive [inhibitor, single point] | – |
| Cc1cc(O)cc2c1C(c1ccc(F)cc1)CC1(CC(C)(C)NC(=S)N1)O2 (stereo not drawn) | inconclusive [inhibitor, partial curve, poor fit] | – |
| CCOC(=O)/C(=N\Nc1cc(Cl)ccc1Cl)N1CCOCC1 | inactive | – |
| O=C(Nc1ccccc1N1CCN(C(=O)c2ccccc2)CC1)c1cc2ccccc2o1 | inconclusive [inhibitor, full curve, poor fit] | – |
| COc1cccc(CNC(=O)C(=O)NCCC2CCCCN2S(=O)(=O)c2ccccc2)c1 (stereo not drawn) | inconclusive [inhibitor, single point] | – |
| COc1ccc([N+](=O)[O-])cc1NC(=O)CSCc1ccccc1 | inconclusive [inhibitor, single point] | – |
| CCCCC(CC)COC(=O)C(C#N)=C(c1ccccc1)c1ccccc1 (stereo not drawn) | inactive | – |
| O=C(NC1CCCC1)c1c(O)nc2sccn2c1=O | inconclusive [inhibitor, single point] | – |
| COc1ccc(NC(=O)c2cc3ccccc3cc2OC)cc1 | inconclusive [inhibitor, single point] | – |
| CCOC(=O)c1sc(NC(=O)CCN2CCN(CC)CC2)c(C(=O)OCC)c1C | inconclusive [inhibitor, partial curve, poor fit] | – |
| Cc1ccc2c(CC(=O)NCC3COc4ccccc4O3)coc2c1 (stereo not drawn) | inconclusive [inhibitor, single point] | – |
| Cc1ccc(S(=O)(=O)Cn2nnnc2C(CC(C)C)N2CCN(C3CCCC3)CC2)cc1 (stereo not drawn) | inconclusive [inhibitor, partial curve, poor fit] | – |
| Cc1ccc(NC(=O)c2cc(S(=O)(=O)N3CCOCC3)c(Cl)cc2Cl)cc1 | inactive | – |

| Structure (SMILES) | Potency | activity change, negative = inhibition |
| --- | --- | --- |
| O=C(N/N=C/c1ccccc1O)NC12CC3CC(CC(C3)C1)C2 | active: 10 µM | – |
| COc1cccc(CC(=O)N2CCCC(CO)(Cc3ccc(F)cc3F)C2)c1 (stereo not drawn) | inconclusive [inhibitor, single point] | – |
| O=C(CSc1nnc(Cc2cccs2)n1Cc1ccco1)Nc1cccc(Cl)c1 | inconclusive [inhibitor, partial curve, poor fit] | – |
| COCCNC(=O)CCC(=O)NNc1nc2ccccc2c2nc(-c3ccccc3)nn12 | inactive | – |
| Cc1ccc(C(=O)Nc2ccc3c(c2)OCCO3)c(Cl)c1 | inconclusive [inhibitor, full curve, poor fit] | – |
| CCOc1ccccc1OCCCNCc1ccccc1 | inconclusive [inhibitor, single point] | – |
| CC(C)Cn1c(N)c(C(=O)COC(=O)c2ccc(F)cc2)c(=O)n(C)c1=O | inconclusive [inhibitor, single point] | – |
| Clc1ccccc1-c1nc(Nc2ccccc2)nc2ccc(Br)cc12 | active: 10 µM | – |
| Cc1ccc(NC(=O)N2CCC(n3c(C)nc4cccnc43)CC2)c(Cl)c1 | inactive | – |
| CC1Sc2ccc(S(=O)(=O)N3CCC(C(=O)NCc4ccc(Cl)cc4)CC3)cc2NC1=O (stereo not drawn) | inconclusive [inhibitor, single point] | – |
| CCCNC(=O)C1(C)CCCN(Cc2csc(-c3ccccc3)n2)C1 (stereo not drawn) | inconclusive [inhibitor, single point] | – |
| CN(C)c1ccc(C(CNC(=O)COc2ccc(Cl)cc2)N2CCOCC2)cc1 (stereo not drawn) | inactive | – |
| CN1CC(c2ccccc2)C2(SC(=S)N(Cc3ccco3)C2=O)C12C(=O)Nc1ccccc12 (stereo not drawn) | inconclusive [inhibitor, single point] | – |
| CCc1ccccc1N(CC(=O)NC(C)(C)CC)C(=O)CCC(=O)Nc1nccs1 | inconclusive [inhibitor, partial curve, poor fit] | – |
| CC(C)c1ccc(/C=N/NC(=O)c2cccc(S(=O)(=O)N3CCOCC3)c2)cc1 | inconclusive [inhibitor, full curve, poor fit] | – |
| N#CC1=C(N)Oc2c(O)cc3ccccc3c2C1c1ccsc1 (stereo not drawn) | inconclusive [inhibitor, partial curve, poor fit] | – |
| COCCNC(=S)N1CCc2cc(OC)c(OC)cc2C1COc1cc(C)cc(C)c1 (stereo not drawn) | inconclusive [inhibitor, single point] | – |
| COC(=O)c1[nH]c2ccccc2c1Sc1ccccc1 | inconclusive [inhibitor, full curve, poor fit] | – |
| CCCOc1ccc(N2C(=O)CC(N(CCc3ccc(OC)c(OC)c3)C(=S)Nc3ccccc3)C2=O)cc1 (stereo not drawn) | active: 5.62 µM | – |
| CCn1c2ccccc2c2cc(C3C(C#N)=C(N)Oc4n[nH]c(COC)c43)ccc21 (stereo not drawn) | inconclusive [inhibitor, full curve, poor fit] | – |
| Cc1ccc(N/N=C(\C#N)C(=N)N2CCCCCC2)cc1 | inconclusive [inhibitor, partial curve, poor fit] | – |

| Structure (SMILES) | Potency | activity change, negative = inhibition |
| --- | --- | --- |
| Cc1ccc(Cl)cc1N1CCN(C(=O)c2cn(C3CCCCC3)c(=O)c3c2c2ccccc2n3C)CC1 | inactive | – |
| N#Cc1cc(Oc2cccc3cccnc23)c(-n2nnc3ccccc32)cc1C#N | inconclusive [inhibitor, single point] | – |
| Cc1cc(C(=O)N/N=C/c2cc(Br)ccc2OC(=O)c2ccccc2)n[nH]1 | inconclusive [inhibitor, partial curve, poor fit] | – |
| Nn1c(Cc2cccc3ccccc23)nnc1SCc1c(Cl)cccc1Cl | inconclusive [inhibitor, partial curve, poor fit] | – |
| CCCc1nc2ccccc2c(C(=O)OCC(=O)N2CCc3ccccc32)c1CC | active: 2.82 µM | – |
| Cc1nnc(N/N=C/c2cccc(OCc3ccc(Cl)c(Cl)c3)c2)n1N | inconclusive [inhibitor, single point] | – |
| O=C(NC(=S)Nc1cccc(O)c1)C1CCCCC1 | inconclusive [inhibitor, single point] | – |
| CC1(C(=O)NCc2ccc(Cl)cc2)CCN1C(=O)Cc1ccc(Cl)cc1Cl (stereo not drawn) | inconclusive [inhibitor, partial curve, poor fit] | – |
| CC(=O)Nc1ccc(NC(=O)C(C)OC(=O)CNS(=O)(=O)/C=C/c2ccc(C)cc2)cc1 (stereo not drawn) | inactive | – |
| CCc1nc2ccccc2c(C(=O)OC2CCCCC2=O)c1C (stereo not drawn) | inconclusive [inhibitor, single point] | – |
| CCn1c(=O)c(C(=O)NNS(=O)(=O)c2ccc(Br)cc2)c(O)c2ccccc21 | inconclusive [inhibitor, single point] | – |
| COc1ccccc1NC(=O)c1cc(N2C(=O)C3C4CCC(C4)C3C2=O)ccc1Cl (stereo not drawn) | inconclusive [inhibitor, partial curve, poor fit] | – |
| Cc1ccc(NC(=O)CN2CCCN(Cc3cc(C)ccc3C)S2(=O)=O)c(Cl)c1 | inconclusive [inhibitor, single point] | – |
| CCCCCCCCN1C(=O)[C@H](CC(=O)NCc2cccc3ccccc23)C[C@@]2(C(=O)OC)CCCCC=C12 | inconclusive [inhibitor, single point] | – |
| CNC(=S)N(C1=NCC(c2ccc([N+](=O)[O-])cc2)S1)c1ccccc1 (stereo not drawn) | inconclusive [inhibitor, partial curve] | – |
| COc1cc(C(=O)NNC(=S)NC(=O)c2ccccc2C)cc(OC)c1OC | inconclusive [inhibitor, single point] | – |
| CC(=O)NC1C(=O)N(CCc2ccccc2)c2ccc(Br)cc21 (stereo not drawn) | inconclusive [inhibitor, single point] | – |
| Fc1cccc(-n2ncc(-c3nnnn3-c3ccccc3)c2C(F)(F)F)c1 | inconclusive [inhibitor, partial curve, poor fit] | – |
| O=[N+]([O-])c1ccccc1OCCCn1cnc2ccccc21 | – | inactive: 31.3% [at 7.66 µM] |
| COc1ccc(N=C2S/C(=C\c3ccc(OC(C)C(=O)O)c(OC)c3)C(=O)N2CCc2c[nH]c3ccccc23)cc1 (stereo not drawn) | inconclusive [inhibitor, partial curve, poor fit] | – |
| Cc1ccc(-n2c(O)c(/C=N/n3cnnc3)c3ccccc3c2=O)cc1 | inactive | – |

Reference: PubChem BioAssay AID624417 (National Center for Advancing Translational Sciences (NCATS), 2012)
